The supplement of paper PMC10126150
Values marked as one replicate rest on one cluster of the flow cell; about a third of the high ones do not repeat.
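Note: ATP exposure 15 min at 22 °C before imaging.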

The sequences below were run on ATP (assay: switch fluorescence ratio, 500 uM ATP over buffer (Cy3 cluster intensity, sum of 5 cycles each) (fold (ratio)); higher = stronger signal-on switching upon ATP binding; sequences stand for … in TCGTCGGCAGCGTCAGATGTGTATAAGAGACAGTTTTTTTTTTTTTTTTTTTTTTTTT…TC). Conditions: aptamer strand: ATP DNA aptamer (quencher-CACCTGGGGGAGTATTGCGGAGGAAGG + anchor), 100 nM annealed; ATP concentration: 500 uM; one replicate.
How it was run: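 Clusters with intensities outside 100-1000 RFU were excluded. The remaining Cy3-labelled switching-strand clusters on a modified Illumina MiSeq flow-cell had been annealed to 100 nM quencher-labelled ATP aptamer and imaged in selection buffer, then after 15 min with 500 uM ATP at 22 °C, for five cycles separated by NaOH stripping and re-annealing. The fluorescence ratio, averaged per switch-domain sequence, is each cluster's summed target-cycle Cy3 intensity over its summed buffer-cycle Cy3 intensity.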
GATTAAATAA was tested, and the switch fluorescence ratio was 0.996. CTGACTAGGC showed a switch fluorescence ratio of 1.09. Work on TGTTGAGAAT yielded a switch fluorescence ratio of 0.974. ATTTAGATGA gave a switch fluorescence ratio of 0.988. TATGAACTGG showed a switch fluorescence ratio of 0.978. Work on GGTTGATCAG yielded a switch fluorescence ratio of 0.993. For ATTCACGGTT, the switch fluorescence ratio was 0.952. In the case of GCCGGGACCT, the switch fluorescence ratio is reported as 1. For CTCTCGTTGG, the switch fluorescence ratio was 0.943. GACTGAAAAT was tested, and the switch fluorescence ratio was 1.04. Sequence TTCGGGGAGA has a switch fluorescence ratio of 0.998. GAGATTAAGT was tested, and the switch fluorescence ratio was 1. For CATGCCGCTC, the switch fluorescence ratio was 1.12. AAGGGTAGAG showed a switch fluorescence ratio of 1. Sequence CGCACGGGAT has a switch fluorescence ratio of 1.12. TTAACGAATA was tested, and the switch fluorescence ratio was 1.01. In the case of TTTTGTTGGA, the switch fluorescence ratio is reported as 1. For AGTTGCGTGG, the switch fluorescence ratio was 0.976. CTTAGCGTCC showed a switch fluorescence ratio of 1. AAAGCATCCT was tested, and the switch fluorescence ratio was 1.14. ACTCGCTCAC gave a switch fluorescence ratio of 3.57. TCGTGGATCC was tested, and the switch fluorescence ratio was 0.966. GAGGGGCGAG gave a switch fluorescence ratio of 1.01. Sequence GACAGTGTGT has a switch fluorescence ratio of 1. With TGACAGATCA the switch fluorescence ratio was 1.01. Sequence GTCCGTAGAG has a switch fluorescence ratio of 1.04. CGAGAGATTA gave a switch fluorescence ratio of 1.01. TAAGCATGCT showed a switch fluorescence ratio of 0.954. GGACTGGCAG gave a switch fluorescence ratio of 0.981. CGTTGGCAAG gave a switch fluorescence ratio of 0.988. For TCCTCGTTGG, the switch fluorescence ratio was 1.02. Work on ACTGTCAATC yielded a switch fluorescence ratio of 1.42. Work on GGCCCCACAC yielded a switch fluorescence ratio of 1.19. Sequence GGCGTGTGGA has a switch fluorescence ratio of 1.04. Sequence GCGTGTTGCG has a switch fluorescence ratio of 1.04. Sequence GATCCAGGGC has a switch fluorescence ratio of 1.02. Work on AGGATATGTT yielded a switch fluorescence ratio of 0.98. ACCGCGCCAC showed a switch fluorescence ratio of 2.82. TCGGCGCGAG was tested, and the switch fluorescence ratio was 0.996. For TCTGGGATGT, the switch fluorescence ratio was 0.998. With AAATAGTTAC the switch fluorescence ratio was 1.09. With CAATGGAGGT the switch fluorescence ratio was 0.981. Work on TACGTCCAAC yielded a switch fluorescence ratio of 1.15. Sequence CGAACGGCTA has a switch fluorescence ratio of 1.28. CCTGACGTC gave a switch fluorescence ratio of 1.04. GGTTATACCC showed a switch fluorescence ratio of 0.99. Work on GAGATAATTT yielded a switch fluorescence ratio of 0.994. With TAGTTTAGGC the switch fluorescence ratio was 1.04. Sequence GATACAACTC has a switch fluorescence ratio of 1. With CGATCTGAGA the switch fluorescence ratio was 1. For GTTCTATAAG, the switch fluorescence ratio was 1.02. For TCTCCGGATG, the switch fluorescence ratio was 2.71. In the case of CTACTTGGGT, the switch fluorescence ratio is reported as 1.04. TGTTCCACGT showed a switch fluorescence ratio of 1.05. CGGGACACCC showed a switch fluorescence ratio of 1.03. In the case of GCGAGGCGG, the switch fluorescence ratio is reported as 1. Work on CAATATTTCT yielded a switch fluorescence ratio of 1. With GTACCTGGTA the switch fluorescence ratio was 1.01. CGACAATTCA gave a switch fluorescence ratio of 1.07. With AGGCATCCGA the switch fluorescence ratio was 1.01. CTGTAATCTA showed a switch fluorescence ratio of 1.04. Work on GAATTTTTT yielded a switch fluorescence ratio of 1.03. ACTTACGATG was tested, and the switch fluorescence ratio was 1.41. CACTTCGGGA showed a switch fluorescence ratio of 1.03. With TGCGCTTTGC the switch fluorescence ratio was 1.1. GGAGTATCTT was tested, and the switch fluorescence ratio was 1.02. TGTTTATT gave a switch fluorescence ratio of 1.01. CGGTCGATGA showed a switch fluorescence ratio of 0.955. TCAACAACCT was tested, and the switch fluorescence ratio was 1.33. CCCGGGTTGA gave a switch fluorescence ratio of 1.03. Sequence CGCGCTAGAA has a switch fluorescence ratio of 1.08. Work on CGTCTTGTTT yielded a switch fluorescence ratio of 0.991. AATAGACTGT was tested, and the switch fluorescence ratio was 0.968. AGCTATTCGA gave a switch fluorescence ratio of 1.06. GCCTGGGCCC showed a switch fluorescence ratio of 0.981. With TTTCGTAGTA the switch fluorescence ratio was 0.993. In the case of TACTATGCCT, the switch fluorescence ratio is reported as 1.01. With GCATCGAAGG the switch fluorescence ratio was 1.02. AAGAAAGCGG was tested, and the switch fluorescence ratio was 0.95. With CACTGTCCGG the switch fluorescence ratio was 1.03. TGCCCAGGTA showed a switch fluorescence ratio of 2.22. For GAGGCAAGCC, the switch fluorescence ratio was 1.13. TTACGGGAAA showed a switch fluorescence ratio of 1.01. In the case of CTCGAAGCGT, the switch fluorescence ratio is reported as 1.07. For CCTCGAGGCC, the switch fluorescence ratio was 1.04. For ACTCGAAAAG, the switch fluorescence ratio was 1.01. Work on CGCTGCAACT yielded a switch fluorescence ratio of 2.28. Sequence GCTATTGGTC has a switch fluorescence ratio of 0.978. With GGAAAAGGAT the switch fluorescence ratio was 0.957. GACTGAGATT was tested, and the switch fluorescence ratio was 0.965. Work on CGCACTCCAT yielded a switch fluorescence ratio of 1.95. In the case of CATTGTGTCC, the switch fluorescence ratio is reported as 0.964. GAGTACTCCG was tested, and the switch fluorescence ratio was 1.03. For CCTCGTATCT, the switch fluorescence ratio was 1.07. Work on GCTATGGCTC yielded a switch fluorescence ratio of 0.963. Sequence AATATTGGCG has a switch fluorescence ratio of 0.946. In the case of GTCCAGAGAT, the switch fluorescence ratio is reported as 1.07. ATGGGGGTGA was tested, and the switch fluorescence ratio was 1.04. In the case of AGCCATTGG, the switch fluorescence ratio is reported as 1.07. ATGGGTGAAT gave a switch fluorescence ratio of 0.967.
